Source: the supplement of paper PMC9446081
In all, about 39,000 compounds went through this assay and about 220 (0.56%) showed activity. Some of the results follow.
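Further: static incubation at 37 °C against the wild-type strain, values averaged over two biological replicates.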

Each compound was assayed on Escherichia coli K-12 BW25113 (assay: relative growth (OD600 normalised to plate interquartile mean) (fraction); higher = less growth inhibition, active = 0.2 or less). Settings: 50 µM; LB; incubation time: overnight (16-24 h).
With `COC(=O)CCCCCCC(=O)N/N=C/[C@H](O)[C@@H](O)[C@H](O)[C@H](O)CO[C@H]1O[C@H](CO)[C@H](O)[C@H](O)[C@H]1O` the relative growth was inactive: 1.01. `C[C@H]1CN([C@@H](C)CO)C(=O)c2cccc(NC(=O)CCCCCC(=O)Nc3ccccc3N)c2O[C@H]1CN(C)Cc1ccc(Oc2ccccc2)cc1` was tested, and the relative growth was inactive: 0.996. `COc1cccc(S(=O)(=O)N(C)C[C@@H]2Oc3ncc(C#CCN(C)C)cc3C(=O)N([C@@H](C)CO)C[C@@H]2C)c1` was tested, and the relative growth was inactive: 1.01. `CC(C)NC(=O)Nc1ccc2c(c1)C(=O)N([C@@H](C)CO)C[C@H](C)[C@H](CN(C)C(=O)C1CCCCC1)OCCCC[C@H](C)O2` was tested, and the relative growth was inactive: 0.784. In the case of `CN(C)CCCC[C@@H]1NC(=O)[C@H]2C[C@@H](C(=O)NCCCCCNC(=O)CS)[C@@H](c3ccc(O)cc3)N2C1=O`, the relative growth is reported as inactive: 0.993. For `C[C@H](CO)N1C[C@H](C)[C@@H](CN(C)S(=O)(=O)c2ccc(F)cc2)OCCCC[C@H](C)Oc2ccc(NC(=O)Nc3cccc4ccccc34)cc2C1=O`, the relative growth was inactive: 0.973. With `Cc1noc(C)c1NC(=O)Nc1cccc2c1O[C@@H](CN(C)S(=O)(=O)c1ccccc1)[C@@H](C)CN([C@@H](C)CO)C2=O` the relative growth was inactive: 1.02. In the case of `COc1cccc(S(=O)(=O)Nc2ccc3c(c2)[C@@H]2C[C@@H](CC(=O)NCc4ccccc4F)O[C@@H](CO)[C@@H]2O3)c1`, the relative growth is reported as inactive: 0.985. For `CC(=O)OC1CCC2(C)C(CCC3C2CCC2(C)C3CC3OC4(CCC(C)CO4)C(C)C32)C1` (configuration not stated), the relative growth was inactive: 1.13. For `CCCCS(=N)(=O)CC[C@H](N)C(=O)O` (some centres not stated), the relative growth was inactive: 1.01. `C#CCn1c(=O)c2c(OC)ccnc2n(C)c1=O` was tested, and the relative growth was inactive: 1.02. In the case of `O=C(O)/C=C/C(=O)NC1CC1`, the relative growth is reported as inactive: 0.972. With `C[C@H](CO)N1C[C@H](C)[C@H](CN(C)S(=O)(=O)c2ccc(Cl)cc2)OCCCC[C@H](C)Oc2ccc(NC(=O)c3ccccc3)cc2C1=O` the relative growth was inactive: 1.04. With `COc1ccc(S(=O)(=O)N(C)C[C@@H]2Oc3c(NC(=O)c4ccno4)cccc3C(=O)N([C@@H](C)CO)C[C@@H]2C)cc1` the relative growth was inactive: 0.986. In the case of `C[C@@H]1CN([C@H](C)CO)C(=O)c2cc(NS(C)(=O)=O)ccc2O[C@H]1CN(C)C(=O)Nc1ccccc1`, the relative growth is reported as inactive: 0.992. In the case of `CCCN(C)C[C@@H]1OCCCC[C@H](C)Oc2ccc(NC(=O)CCC(F)(F)F)cc2C(=O)N([C@H](C)CO)C[C@@H]1C`, the relative growth is reported as inactive: 0.998. `C[C@H]1CCCCO[C@H](CN(C)Cc2ccc(C(=O)O)cc2)[C@@H](C)CN([C@@H](C)CO)C(=O)c2cc(NS(=O)(=O)c3ccc(F)cc3)ccc2O1` was tested, and the relative growth was inactive: 0.987. With `C[C@H]1CN([C@@H](C)CO)C(=O)Cc2cc(NC(=O)C3CCCCC3)ccc2O[C@H]1CN(C)Cc1ccc(C(F)(F)F)cc1` the relative growth was inactive: 1.03. In the case of `COc1ccc(NC(=O)Nc2ccc3c(c2)C(=O)N([C@H](C)CO)C[C@H](C)[C@H](CN(C)Cc2ccc(C(=O)Nc4ccccc4N)cc2)OCCCC[C@@H](C)O3)cc1`, the relative growth is reported as inactive: 0.978. In the case of `Cc1noc(C)c1S(=O)(=O)N(C)C[C@@H]1Oc2ccc(NC(=O)Cn3cnnn3)cc2CC(=O)N([C@@H](C)CO)C[C@@H]1C`, the relative growth is reported as inactive: 0.979. With `O=C(C[C@H]1CC[C@@H]2[C@H](COC[C@@H](O)CN2C(=O)c2cnccn2)O1)NCc1ccc(Oc2ccccc2)cc1` the relative growth was inactive: 0.964. With `COc1ccc(NC(=O)N(C)C[C@@H]2Oc3ccc(NC(=O)Nc4cccc5ccccc45)cc3CC(=O)N([C@H](C)CO)C[C@@H]2C)cc1` the relative growth was inactive: 1.01. In the case of `C[C@@H]1CN([C@@H](C)CO)C(=O)c2cc(NC(=O)NC3CCCCC3)ccc2O[C@@H](C)CCCCO[C@@H]1CN(C)C(=O)CCC(F)(F)F`, the relative growth is reported as inactive: 0.987. For `COc1ccc(NC(=O)Nc2cccc3c2O[C@H](CN(C)Cc2ccc(-c4ccccc4)cc2)[C@H](C)CN([C@H](C)CO)C3=O)cc1`, the relative growth was inactive: 0.849. In the case of `C/C=C/c1ccc2c(c1)O[C@H](CN(C)S(=O)(=O)c1ccccc1OC)[C@H](C)CN([C@@H](C)CO)S2(=O)=O`, the relative growth is reported as inactive: 0.997. In the case of `COc1cccc(CNC(=O)c2cc3c(c(-c4cccc(-c5ccncc5)c4)n2)[C@@H](CCO)N([S@@](=O)C(C)(C)C)C3)c1`, the relative growth is reported as inactive: 1.04. With `COc1ccc(NC(=O)Nc2ccc3c(c2)C(=O)N([C@@H](C)CO)C[C@H](C)[C@@H](CN(C)S(=O)(=O)c2c(C)noc2C)OCCCC[C@@H](C)O3)cc1` the relative growth was inactive: 1.04. `C[C@H](O)C#Cc1ccc2c(c1)O[C@H](CN(C)C(=O)c1ccccc1)[C@@H](C)CN([C@H](C)CO)S2(=O)=O` was tested, and the relative growth was inactive: 1.01. For `Cc1noc(C)c1S(=O)(=O)Nc1ccc2c(c1)CC(=O)N([C@@H](C)CO)C[C@H](C)[C@@H](CN(C)S(=O)(=O)c1ccc(Cl)cc1)O2`, the relative growth was inactive: 1.01. With `COc1ccc(CN(C)C[C@@H]2OCCCC[C@@H](C)Oc3ccc(NC(=O)NC(C)C)cc3C(=O)N([C@H](C)CO)C[C@H]2C)cc1` the relative growth was inactive: 0.977. `C[C@@H]1CCCCO[C@@H](CN(C)C(=O)NC2CCCCC2)[C@H](C)CN([C@H](C)CO)C(=O)c2cc(NS(=O)(=O)c3ccc(F)cc3)ccc2O1` was tested, and the relative growth was inactive: 0.984. `CO[C@@H]1CN(C)C(=O)c2cc(NS(=O)(=O)CC(F)(F)F)ccc2OC[C@H](C)N(Cc2ccccn2)C[C@H]1C` was tested, and the relative growth was inactive: 1.01. For `C[C@@H]1CN([C@@H](C)CO)C(=O)c2cc(NC(=O)Nc3ccccc3)ccc2O[C@@H](C)CCCCO[C@@H]1CN(C)Cc1ccc(C(=O)O)cc1`, the relative growth was inactive: 1. `C[C@@H]1CCCCO[C@@H](CN(C)Cc2ccc3c(c2)OCO3)[C@@H](C)CN([C@@H](C)CO)C(=O)c2cc(NC(=O)c3ccccc3)ccc2O1` was tested, and the relative growth was inactive: 0.981. For `COC(=O)CCCCCNc1n[nH]c(=O)[nH]c1=O`, the relative growth was inactive: 1.03. `Cc1ccc(NC(=O)[C@@H]2[C@@H]3CC/C=C\CC/C=C/CC[C@@H]32)cc1C` was tested, and the relative growth was inactive: 1.01. In the case of `CS(=O)(=O)c1ccc(O)c(C(=O)O)c1`, the relative growth is reported as inactive: 0.974.
